This note sets out measurements from PMC4336329 (PLoS ONE, 2015).

The structures appear in SMILES notation. Among all 310,000 compounds or so, about 14,000 (4.5%) showed an effect of 50% or more. Effects have a minus sign here. This is one part of the list.
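Also: peak tail current of the secondary pulse compared with the same well before compound.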

The target of this test is human ether-à-go-go-related gene (hERG) potassium channel (human, UniProt Q12809). Nature of the test: primary screen, population patch clamp on CHO cells stably expressing hERG.
Sequence of human ether-à-go-go-related gene (hERG) potassium channel (Q12809 whole entry, looked up): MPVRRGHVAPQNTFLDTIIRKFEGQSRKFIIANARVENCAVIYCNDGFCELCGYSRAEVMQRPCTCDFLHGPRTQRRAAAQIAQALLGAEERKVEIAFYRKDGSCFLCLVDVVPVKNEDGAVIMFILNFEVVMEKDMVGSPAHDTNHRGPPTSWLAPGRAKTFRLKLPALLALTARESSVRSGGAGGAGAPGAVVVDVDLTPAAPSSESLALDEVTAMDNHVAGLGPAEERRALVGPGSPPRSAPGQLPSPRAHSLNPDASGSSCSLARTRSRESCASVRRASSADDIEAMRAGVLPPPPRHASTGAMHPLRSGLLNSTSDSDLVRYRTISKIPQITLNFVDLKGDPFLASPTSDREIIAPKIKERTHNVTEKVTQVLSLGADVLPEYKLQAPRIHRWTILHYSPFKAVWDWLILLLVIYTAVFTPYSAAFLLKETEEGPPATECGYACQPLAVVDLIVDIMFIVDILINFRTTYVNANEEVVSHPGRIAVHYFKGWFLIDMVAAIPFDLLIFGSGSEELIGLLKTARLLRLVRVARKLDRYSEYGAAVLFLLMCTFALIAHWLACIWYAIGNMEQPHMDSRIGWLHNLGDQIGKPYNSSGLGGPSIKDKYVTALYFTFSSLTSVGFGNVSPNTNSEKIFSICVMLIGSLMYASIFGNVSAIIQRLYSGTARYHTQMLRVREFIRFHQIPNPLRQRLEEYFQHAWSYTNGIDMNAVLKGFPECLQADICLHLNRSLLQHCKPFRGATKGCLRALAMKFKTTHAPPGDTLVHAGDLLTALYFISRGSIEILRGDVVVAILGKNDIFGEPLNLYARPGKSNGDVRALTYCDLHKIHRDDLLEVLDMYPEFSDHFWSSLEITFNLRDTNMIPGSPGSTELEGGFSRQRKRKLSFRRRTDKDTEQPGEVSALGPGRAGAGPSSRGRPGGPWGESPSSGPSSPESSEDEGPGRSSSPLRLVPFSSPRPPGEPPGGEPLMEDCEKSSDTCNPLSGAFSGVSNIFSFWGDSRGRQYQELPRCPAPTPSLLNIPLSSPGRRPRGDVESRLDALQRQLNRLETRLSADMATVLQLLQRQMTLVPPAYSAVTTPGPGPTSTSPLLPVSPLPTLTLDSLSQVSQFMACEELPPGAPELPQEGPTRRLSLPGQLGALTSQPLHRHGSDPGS
With `COc1ccccc1-c1nnc(-c2ccc(F)cc2)o1`, the “hERG current change (%, negative = inhibition) at 10uM” value is recorded as -25.4%.

`Cc1ccc(S(=O)(=O)N(CCC(=O)Nc2ccc(OC(F)(F)F)cc2)c2ccccc2)cc1`: the “hERG current change (%, negative = inhibition) at 10uM” value is listed as -14%. For the compound `Cc1ccc2[nH]c(C(=O)N3CCCC(Nc4ccc(F)cc4)C3)cc2c1` (stereo not shown), the “hERG current change (%, negative = inhibition) at 10uM” value is listed as -3.73%.

As for `Cc1ccc(S(=O)(=O)c2cn(C)c3cc(N4CCN(C)CC4)c(F)cc3c2=O)cc1`, the “hERG current change (%, negative = inhibition) at 10uM” value was -28.4%. Next, `O=C(Nc1ccc(Cl)cc1)C1CCCN(c2ncnc3c2nc2n3CCCCC2)C1` (stereo not shown): -50.1%; `CCN(CC)CCN1C(=O)c2oc3ccccc3c(=O)c2C1c1ccc(F)cc1` (stereo not shown): -16.3%. For `CCN1CCCC1CNC(=O)c1ccc(Sc2ccccc2Cl)c([N+](=O)[O-])c1` (stereo not shown) the value was -64.1%.

On to `CCn1cc(-c2csc(N)n2)c(C)n1`, for which the “hERG current change (%, negative = inhibition) at 10uM” value is listed as 34.1%. For `CC(=O)Nc1ccc(CN2CCN(C3CCCC3)C(CCO)C2)cc1` (stereo not shown) the value was -1.63%.

Regarding `CC(=O)Nc1ccccc1C(=O)OCC(=O)c1ccc2c(c1)OCCO2`, the “hERG current change (%, negative = inhibition) at 10uM” value is -1.71%. Next, `Cc1ccccc1NC(=O)CCN1C(=O)c2ccccc2C1=O`: 12.8%; `COC(=O)C(C)Sc1ccc2nnc(CCNS(=O)(=O)c3ccccc3)n2n1` (stereo not shown): 5.58%; `CN(C)S(=O)(=O)c1cccc(NC(=O)c2cc3ccccc3o2)c1`: -13.7%. As for `O=C(Cc1ccccc1)NC(Nc1cccc2ccccc12)C(Cl)(Cl)Cl` (stereo not shown), the “hERG current change (%, negative = inhibition) at 10uM” value was 1.45%. Next, `CCN(CC)CCCNC(=O)c1ccc(OCC(=O)Nc2ccccc2C(F)(F)F)c(OC)c1`: -70.5%. Next, `COc1ccc(NC(C)=O)cc1NC(=O)CSc1nc2ncccc2[nH]1`: -1.79%; `O=C(c1cc(-c2ccc(Cl)cc2)n[nH]1)N1CCN(C(=O)c2ccco2)CC1`: -68.9%. `Cc1nc(Nc2nc(CSc3ccc(Cl)cc3)cc(=O)[nH]2)nc2ccccc12`: the “hERG current change (%, negative = inhibition) at 10uM” value is listed as -19.4%. On to `O=S1(=O)CCN2C=C(Cl)C=C(Cl)C2=N1`, for which the “hERG current change (%, negative = inhibition) at 10uM” value is 13.8%. Next, `CC1CC(C)CN(C(=O)c2cc3c(s2)CCC3)C1` (stereo not shown): -3.28%.

As to `CC(=O)c1c(C)n(-c2ccccc2)c2ccc(OCC(O)CN3CCOCC3)cc12` (stereo not shown), the “hERG current change (%, negative = inhibition) at 10uM” value is -7.16%. For the compound `COc1cccc(NC(=O)CSc2nc3c(sc4ccccc43)c(=O)n2CCN(C)C)c1.Cl`, the “hERG current change (%, negative = inhibition) at 10uM” value is listed as -65.5%. Turning to `Cc1ccc(CSc2nc3nc(C)cc(C)c3c(=O)[nH]2)cc1`, the “hERG current change (%, negative = inhibition) at 10uM” value is -30.1%. `Cc1cc(-c2nnc(SCC(=O)Nc3ccc(F)c(F)c3)n2N)n[nH]1`: the “hERG current change (%, negative = inhibition) at 10uM” value is recorded as -1.95%. For `CCOC(=O)c1ccc(N=NN(C)C)cc1`, the “hERG current change (%, negative = inhibition) at 10uM” value worked out at 4.38%.

As to `O=C(N/N=C/c1c[nH]c2ccccc12)c1cc2ccccc2o1`, the “hERG current change (%, negative = inhibition) at 10uM” value was found to be 0.529%.

For the compound `Brc1ccc(-c2nnc(-c3cccnc3)c3conc23)cc1`, the “hERG current change (%, negative = inhibition) at 10uM” value is given as 7.82%. For `Br.CCc1ccc(C2=CSC3=NCCN23)cc1` the value was -14.7%; for `Cc1cccn2c(=O)c3cc(C(=O)NCC4CCCO4)c(=N)n(CC4CCCO4)c3nc12` (stereo not shown), -81.9%; for `CN(Cc1nccn1C)C(=O)CC1C(=O)NCCN1CC(c1ccccc1)c1ccccc1` (stereo not shown), -3.81%. As for `COc1ccccc1CC1CC(=O)N(c2ccccc2)C1=O` (stereo not shown), the “hERG current change (%, negative = inhibition) at 10uM” value is recorded as 13.6%. Regarding `CN(C)c1nc2ccccc2c(N)c1-c1ccccc1.O=C(O)C(=O)O`, the “hERG current change (%, negative = inhibition) at 10uM” value is reported as -65.9%. For `COCC(=O)OCC(=O)Nc1cc(C)c(C)cc1[N+](=O)[O-]` the value was 5.19%. Next, `Cl.O=C(c1ccc(F)cc1F)N(Cc1ccccn1)Cc1ccco1`: -17.1%. `Cn1c2ccc(CC(=O)O)cc2c2cc(CC(=O)O)ccc21`: the “hERG current change (%, negative = inhibition) at 10uM” value turned out to be 9.54%. Next, `CC(=O)Oc1ccc2occ(/C=N/c3cc(=O)[nH]c(=S)[nH]3)c(=O)c2c1`: 24.9%; `O=C(Cc1ccccc1)Nc1nc(-c2ccc(F)c(F)c2)cs1`: 20.1%. Next, `COc1ccc(OC)c(CN(CCCN2CCOCC2)C(=O)Nc2ccccc2)c1`: -25%.

Turning to `CCN(CC)S(=O)(=O)c1cc([N+](=O)[O-])ccc1N=Nc1c(O)[nH]c2ccccc12`, the “hERG current change (%, negative = inhibition) at 10uM” value is given as 36.4%. For `COc1ccc2[nH]c3c(c2c1)CCNC3` the value was 14.9%. For `COc1ccc(-n2c(C(C)n3nc(C)c([N+](=O)[O-])c3C)n[nH]c2=S)cc1` (stereo not shown) the value was 14.2%; for `COC(C/C=C/[C@H](O)[C@H](C)OCc1ccccc1)OC`, 8.44%.

On to `COc1ccc(OC(C)C(=O)NCCC2=CCCCC2)cc1` (stereo not shown), for which the “hERG current change (%, negative = inhibition) at 10uM” value is on record as 1.23%. For `COc1cccc(C(=O)Nc2c3c(nc4c2CCC4)CCCC3)c1` the value was -23.9%; for `CCN(CC)CCN1C(=O)C(=O)/C(=C(/O)c2ccccc2)C1c1ccccc1F` (stereo not shown), -1.61%. For `Cc1ccc(C2=NN(CC(=O)NCCN(C)C)C(=O)CC2)cc1` the value was -44.9%; for `CCC1CO/C(=C(\C(Cl)=C(Cl)Cl)[N+](=O)[O-])N1Cc1ccc(Cl)nc1` (stereo not shown), -48.9%; for `CCCN(CC(=O)Nc1ccccc1C)C(=O)c1ccc(C(=O)c2ccccc2)cc1`, -25.9%. As for `CCCCN(C(=O)c1ccc2c(c1)NC(=O)CS2)c1ccccc1`, the “hERG current change (%, negative = inhibition) at 10uM” value is recorded as -24%. On to `COCc1nnc(NC(=O)C2CC(=O)N(CCc3ccc(F)cc3)C2)s1` (stereo not shown), for which the “hERG current change (%, negative = inhibition) at 10uM” value is listed as 19.7%. Next, `COc1ccc(OC)c(C(=O)c2coc3ccc(O)c(CN4CCOCC4)c23)c1`: -39.7%; `Cc1ccc(SCCC(=O)OCC(=O)Nc2ncc(Cl)cc2Cl)cc1`: -3.86%; `C=CCN1C(=O)N/C(=C/c2ccccc2OCC(=O)Nc2ccc(F)cc2)C1=O`: -1.92%. Turning to `CCCn1nnnc1SCC(=O)NCc1cccs1`, the “hERG current change (%, negative = inhibition) at 10uM” value is 5.97%. Regarding `CNc1ccccc(C(=O)/C=C/c2ccccc2OC)c1=O`, the “hERG current change (%, negative = inhibition) at 10uM” value is 2.39%. Next, `COc1cccc(CNCCc2ccccc2)c1OC.Cl`: 5.21%; `O=S(=O)(c1ccccc1)c1nc(Nc2cccc(O)c2)sc1Cl`: -16.5%; `S=C(NC1CCCCC1)NC1CC2C=CC1C2` (stereo not shown): 7.86%. With `O=C(NC1(C(F)(F)F)NC(=O)N(c2ccccc2)C1=O)c1cccs1` (stereo not shown), the “hERG current change (%, negative = inhibition) at 10uM” value is listed as 5.73%.

`CCOC(=O)C1CCN(S(=O)(=O)c2ccc3c4c2CC(=O)N4CC(C)S3)CC1` (stereo not shown): the “hERG current change (%, negative = inhibition) at 10uM” value was -57.1%. Next, `COC(=O)c1ccc(OC(=O)CCN2C(=O)C3CCCCC3C2=O)cc1` (stereo not shown): -4.63%; `O=C1NC(=O)N(Cc2ccccc2)C(=O)/C1=C/c1cnn(-c2ccccc2)c1`: 2.15%; `Cc1ccccc1NS(=O)(=O)c1ccc2c(c1)NC(=O)CCS2`: -3.44%. Consider `CCC(C)(C)n1nnnc1CN(Cc1cc2cc(OC)ccc2[nH]c1=O)C1CCCC1`, for which the “hERG current change (%, negative = inhibition) at 10uM” value was -40.1%. On to `COCCN(C(=O)CCC(=O)Nc1cccnc1)C(C(=O)NC1CCCCC1)c1ccccc1` (stereo not shown), for which the “hERG current change (%, negative = inhibition) at 10uM” value was 1.81%.

For the compound `COC(=O)N/N=C(\C)c1ccc2ccccc2c1OC(F)F`, the “hERG current change (%, negative = inhibition) at 10uM” value was found to be 11.9%. For `CCN(CC)S(=O)(=O)c1ccc(C(=O)NNC(=O)C2CCN(S(=O)(=O)c3ccc(Cl)cc3)CC2)cc1` the value was -1.1%; for `Cc1ccc(C(=O)Nc2ncccc2S(=O)(=O)c2ccccc2)cc1`, 6.57%; for `COc1ccc(-c2cc3nc(-c4ccccc4)cc(N4CCC5(CC4)OCCO5)n3n2)cc1`, 3.55%. As for `c1csc(-c2nc(-c3ccc(-c4ccon4)s3)no2)c1`, the “hERG current change (%, negative = inhibition) at 10uM” value came to 16.3%. Turning to `CCOc1ccc2nc(NC(=O)CSc3ccc(Cl)cc3)sc2c1`, the “hERG current change (%, negative = inhibition) at 10uM” value was 15.2%.

Regarding `Cc1ccc(NC(=O)c2ccccc2F)c(NC(=O)c2ccccc2F)c1`, the “hERG current change (%, negative = inhibition) at 10uM” value is -20.1%.

As to `CC1(C(=O)Nc2cccc(C(F)(F)F)c2)CO1` (stereo not shown), the “hERG current change (%, negative = inhibition) at 10uM” value is on record as 25.1%. With `O=[N+]([O-])c1cc(C(F)(F)F)ccc1NCCOc1ccccc1`, the “hERG current change (%, negative = inhibition) at 10uM” value is given as -3.64%.

For the compound `O=C(NCC1CCCO1)c1sc2ccccc2c1Cl` (stereo not shown), the “hERG current change (%, negative = inhibition) at 10uM” value is -3.61%. As to `O=C(NCc1ccc(Cl)cc1)c1ccccc1Oc1ccccc1`, the “hERG current change (%, negative = inhibition) at 10uM” value is reported as -16.9%.

Regarding `Cc1ccc2nc(N3CCN(C(=O)CCCC(=O)O)CC3)nc(-c3ccccc3)c2c1`, the “hERG current change (%, negative = inhibition) at 10uM” value was determined as 5.94%.

As to `COc1ccc(-c2nc(=S)c3c(n2Cc2cccnc2)CC(C)(C)OC3)cc1`, the “hERG current change (%, negative = inhibition) at 10uM” value came to 2.43%. Next, `CC(=O)Nc1ccc(S(=O)(=O)N[C@@H](C)C(=O)N(C)Cc2cccs2)cc1`: 11.8%; `CCc1cccc(NC(=S)Nc2cccc3ccccc23)c1`: 8.63%; `O=C(CN1C(=O)/C(=C/c2ccccc2)SC1=S)Nc1ncc(Cc2ccccc2)s1`: 7.31%.

`CC(C)(Cc1cc(CC(C)(C)C(=O)O)cc(C(C)(C)C)c1)C(=O)O`: the “hERG current change (%, negative = inhibition) at 10uM” value amounted to 10.4%. Consider `Cc1cc(SCC(=O)N/N=C/c2ccc(O)c(O)c2O)c(C)cc1Br`, for which the “hERG current change (%, negative = inhibition) at 10uM” value is 7.06%. Next, `O=C(COC(=O)CNC(=O)c1ccccc1F)Nc1nnc(-c2ccccc2)o1`: -12.7%; `CC(C)c1onc(C(=O)N2CCN(c3ccc(F)cc3)CC2)c1[N+](=O)[O-]`: -19.9%; `Cc1ccc(S(=O)(=O)N(CC(=O)NCCC2=CCCCC2)Cc2ccccc2)cc1`: -27.9%. Consider `Nc1nnnn1/N=C/c1ccccc1O`, for which the “hERG current change (%, negative = inhibition) at 10uM” value worked out at 20.2%. As to `COc1ccccc1NC(=O)c1ccccc1N(Cc1ccccc1)S(C)(=O)=O`, the “hERG current change (%, negative = inhibition) at 10uM” value is given as 11.9%.
